In assay [1] the test system is A. fumigatus TR34/L98H (F10017, an azole resistant strain). The following applies: Aspergillus fumigatus, read-out: MIC99 A. fumigatus TR34/L98H. As to the method: The Minimum Inhibitory Concentration (MIC, at 99% inhibition) of the compounds was determined using the broth microdilution method as recommended by EUCAST (EUCAST Definitive Document E.DEF 9.3.2, Method for the determination of broth dilution minimum inhibitory concentrations of antifungal agents for conidia forming moulds and EUCAST Definitive Document E.DEF 7.3.2 Method for the determination of broth dilution minimum inhibitory concentrations of antifungal agents for yeasts).

Assay [2] relates to T. b. brucei B48 (a strain resistant to diamidines and melaminophenyl arsenicals). Briefly: Resazurin-based (Alamar blue) drug sensitivity assay. The following applies: Trypanosoma brucei, read-out: IC50 T.b. brucei B48. On the procedure:
A detailed description of the procedure for evaluating activity against trypanosomes, using an Alamar Blue (resazurin) assay, is described below.
The bloodstream form (BSF) T. b. brucei s427 (see De Koning, H. P. et al., Mol. Biochem. Parasitol. 2000, 106, 181-185), T. evansi AntTat 3/3 (see Dean, S. et al., Proc. Natl. Acad. Sci. USA, 2013, 110, 14741-14746), and T. equiperdum (see Stewart, M. L. et al., Eukaryot. Cell, 2010, 9, 336-343) were cultured in HMI-9 medium (Life Technologies, Paisley, United Kingdom) supplemented with 10% heat inactivated Foetal Bovine Serum (FBS (PAA Laboratories Linz, Austria)), 14 μL/L β-mercaptoethanol (BDH, Dorset, UK), and 3.0 g/L NaHCO3 (Sigma-Aldrich) and adjusted to pH 7.4. These cell lines were maintained at 37° C. in a humidified, 5% CO2 environment.
A resazurin-based (Alamar blue) drug sensitivity assay was used to assess and compare the activity of standard trypanocides in the different cell lines investigated (see Gould, M. K. et al., Anal. Biochem., 2008, 382, 87-93). Briefly, 23 doubling dilutions of the test compound of the invention, starting at 100 μM, and a compound-free control were prepared in 100 μL medium in a 96-well white plate (Greiner Bio-one, Frickenhausen, Germany). The cells were adjusted to 2×10^4 cells/mL for T. b. brucei and T. equiperdum; 4×10^4 cells/mL for T. evansi; and 5×10^5 cells/mL for T. congolense in the appropriate medium. 100 μL of the adjusted cells was then added to the wells containing drug dilutions and incubated for 48 h under respective culture condition. Thereafter, 20 μL of 125 mg/mL resazurin sodium dye was added, and the plate was incubated for a further 24 h. The resorufin fluorescence in each well of the plate was determined and used to calculate the Half maximal effective concentration (EC50) of the drug, as described in Carruthers, L. V. et al., Mol. Microbiol., 2021, 116, 564-588.
In general terms: Resazurin is reduced to fluorescent resorufin, in cell work by metabolically active cells.

For assay [3], the system named is T. b. brucei Lister S427 (a drug-sensitive wild type). The assay is described as above. The settings on record: for T.b. brucei Selectivity Indices (SI, IC50 (μM)/IC50 (μM)) Group / T.b. brucei Selectivity Index (SI, IC50 (μM)/IC50 (μM)), numeric value: cytotoxicity against HEK293 cells vs T.b. brucei; for pIC50: Trypanosoma brucei, read-out: IC50 T.b. brucei.
Assay [4] relates to T. congolense IL3000 (a drug sensitive wild type). The assay is described as above. The following applies: Trypanosoma congolense, read-out: IC50 T. congo.
For assay [5], the system named is T congolense 6C3 (a diminazene resistant strain). The assay is described as above. The following applies: Trypanosoma congolense, read-out: IC50 T. congo C63.

SMILES strings stand for the structures. pIC50: −log10 of the molar value. Converted amounts (≈) assume the structure as drawn. Where only a bound is given, the exact number is not on record here.

The pIC50 is the negative decadic logarithm of the IC50, by convention in mol/L.

For the molecule `CCCCCCCCCC[N+](C)(C)CCNC(=O)c1cc(NC(=O)c2cc(NC(=O)c3ccc(/C=C/c4cnc5ccccc5c4)cc3)cn2C)cn1C` [Ic9, (E)-N,N-dimethyl-N-(2-(1-methyl-4-(1-methyl-4-(4-(2-(quinolin-3-yl)vinyl)benzamido)-1H-pyrrole-2-carboxamido)-1H-pyrrole-2-carboxamido)ethyl)decan-1-aminium], the MIC99 in assay [1] is more than 50 µg/mL. Also, the pIC50 in assay [2], in assay [3], in assay [4] and in assay [5] was 6.60 to 7.30 throughout. The “T.b. brucei Selectivity Indices (SI, IC50 (μM)/IC50 (μM)) Group” value (“T.b. brucei Selectivity Indices” below) in assay [3] (Quaternary ammoniums) was “D (Group D: SI > 120)”. Also, the “T.b. brucei Selectivity Index (SI, IC50 (μM)/IC50 (μM)), numeric value” (shortened to “T.b. brucei Selectivity Index”) in assay [3] was 131.

`[H]/N=C(\CCNC(=O)c1cc(NC(=O)c2cc(NC(=O)c3ccc(C=Cc4ccc(N(C)C)cc4)nc3)cn2C)cn1C)NCC` [Ia1, (E)-6-(4-(dimethylamino)styryl)-N-(5-((5-((3-(ethylamino)-3-iminopropyl)carbamoyl)-1-methyl-1H-pyrrol-3-yl)carbamoyl)-1-methyl-1H-pyrrol-3-yl)nicotinamide]: the MIC99 in assay [1] fell in the range of 5 to 25 µg/mL (≈ 8.2 to 41 µM). The pIC50 was 6.00 to 6.60 in assay [2], 6.00 to 6.60 in assay [3], 6.60 to 7.30 in assay [4] and 6.60 to 7.30 in assay [5].

Regarding `CN(C)c1ccc(/C=C/c2ccc(C(=O)Nc3c[nH]c(C(=O)Nc4c[nH]c(C(=O)NCCC(=N)N)c4)c3)cn2)cc1` [IIIa9, (E)-N-(5-((5-((3-amino-3-iminopropyl)carbamoyl)-1H-pyrrol-3-yl)carbamoyl)-1H-pyrrol-3-yl)-6-(4-(dimethylamino)styryl)nicotinamide], the MIC99 in assay [1] lay in the range of 5 to 25 µg/mL (≈ 9.03 to 45.2 µM). Moreover, the pIC50 in assay [2] is less than 6.00; in assay [3] it was 6.00 to 6.60; in assay [4] it was 6.00 to 6.60; in assay [5], 6.00 to 6.60.

As for `Cn1cc(NC(=O)c2ccc(/C=C/c3ccc4nonc4c3)cc2)cc1C(=O)Nc1c[nH]c(C(=O)NCCC(=N)N)c1` [IIIa3, (E)-N-(5-((3-amino-3-iminopropyl)carbamoyl)-1H-pyrrol-3-yl)-4-(4-(2-(benzo[c][1,2,5]oxadiazol-5-yl)vinyl)benzamido)-1-methyl-1H-pyrrole-2-carboxamide], the MIC99 in assay [1] is 5 to 25 µg/mL (≈ 8.84 to 44.2 µM). For the same molecule, the pIC50 in assay [2] is 6.60 to 7.30; in assay [3], more than 7.30; in assay [4], 6.00 to 6.60; in assay [5] it was 6.00 to 6.60. The “T.b. brucei Selectivity Indices” value in assay [3] (Alkyl Amidines and NH Pyrroles) is on record as “D (Group D: SI > 300)”. The “T.b. brucei Selectivity Index” value in assay [3] was determined as 635.

On to `N=C(N)CCNC(=O)c1cc(NC(=O)c2cc(NC(=O)c3ccc(/C=C/c4cnc5ccccc5c4)cc3)c[nH]2)c[nH]1` [IIIa6, (E)-N-(3-amino-3-iminopropyl)-4-(4-(4-(2-(quinolin-3-yl)vinyl)benzamido)-1H-pyrrole-2-carboxamido)-1H-pyrrole-2-carboxamide], for which the MIC99 in assay [1] lay in the range of 5 to 25 µg/mL (≈ 8.92 to 44.6 µM). Moreover, the pIC50 was 6.60 to 7.30 in assay [2], more than 7.30 in assay [3], 6.00 to 6.60 in assay [4] and 6.00 to 6.60 in assay [5]. In addition, the “T.b. brucei Selectivity Indices” value in assay [3] (Alkyl Amidines and NH Pyrroles) is given as “D (Group D: SI > 300)”. In assay [3], the “T.b. brucei Selectivity Index” value is 1192.

Take `Cn1cc(NC(=O)c2cc(NC(=O)c3ccc(/C=C/c4cnc5ccccc5c4)cc3)c[nH]2)cc1C(=O)NCCC(=N)N` [IIIa4, (E)-N-(3-amino-3-iminopropyl)-1-methyl-4-(4-(4-(2-(quinolin-3-yl)vinyl)benzamido)-1H-pyrrole-2-carboxamido)-1H-pyrrole-2-carboxamide]: the MIC99 in assay [1] lay in the range of 5 to 25 µg/mL (≈ 8.7 to 43.5 µM). For the same molecule, the pIC50 in assay [2] was more than 7.30; in assay [3], more than 7.30; in assay [4] it was 6.60 to 7.30; in assay [5] it was 6.60 to 7.30. Further, the “T.b. brucei Selectivity Indices” value in assay [3] (Alkyl Amidines and NH Pyrroles) is given as “D (Group D: SI > 300)”. Further, in assay [3], the “T.b. brucei Selectivity Index” value amounted to 3362.

Regarding `Cn1cc(NC(=O)c2ccc(/C=C/c3cnc4ccccc4c3)cc2)cc1C(=O)Nc1c[nH]c(C(=O)NCCC(=N)N)c1` [IIIa2, (E)-N-(5-((3-amino-3-iminopropyl)carbamoyl)-1H-pyrrol-3-yl)-1-methyl-4-(4-(2-(quinolin-3-yl)vinyl)benzamido)-1H-pyrrole-2-carboxamide], in assay [1], the MIC99 lay in the range of 5 to 25 µg/mL (≈ 8.7 to 43.5 µM). The pIC50 in assay [2] is 6.60 to 7.30; in assay [3] it was 6.60 to 7.30; in assay [4] it was 6.00 to 6.60; in assay [5], 6.00 to 6.60. Also, the “T.b. brucei Selectivity Indices” value in assay [3] (Alkyl Amidines and NH Pyrroles) is “D (Group D: SI > 300)”. The “T.b. brucei Selectivity Index” value in assay [3] is 600.

In the case of `CN(C)c1ccc(/C=C/c2ccc(C(=O)Nc3cc(C(=O)Nc4c[nH]c(C(=O)NCCC(=N)N)c4)n(C)c3)cn2)cc1` [IIIa7, (E)-N-(5-((5-((3-amino-3-iminopropyl)carbamoyl)-1H-pyrrol-3-yl)carbamoyl)-1-methyl-1H-pyrrol-3-yl)-6-(4-(dimethylamino)styryl)nicotinamide], in assay [1], the MIC99 is 5 to 25 µg/mL (≈ 8.81 to 44 µM). Further, the pIC50 in assay [2] was less than 6.00; in assay [3], less than 6.00; in assay [4] it was 6.00 to 6.60; in assay [5], 6.00 to 6.60.

Turning to `N=C(N)CCNC(=O)c1cc(NC(=O)c2cc(NC(=O)c3ccc(/C=C/c4ccc5nonc5c4)cc3)c[nH]2)c[nH]1` [IIIa8, (E)-N-(3-amino-3-iminopropyl)-4-(4-(4-(2-(benzo[c][1,2,5]oxadiazol-5-yl)vinyl)benzamido)-1H-pyrrole-2-carboxamido)-1H-pyrrole-2-carboxamide], the MIC99 in assay [1] was more than 50 µg/mL. In addition, the pIC50 is 6.60 to 7.30 in assay [2], more than 7.30 in assay [3], 6.00 to 6.60 in assay [4] and 6.00 to 6.60 in assay [5]. Also, the “T.b. brucei Selectivity Indices” value in assay [3] (Alkyl Amidines and NH Pyrroles) is given as “D (Group D: SI > 300)”. The “T.b. brucei Selectivity Index” value in assay [3] came out at 3492.

For `Cn1cc(NC(=O)c2cc(NC(=O)c3ccc(/C=C/c4ccc5nonc5c4)cc3)c[nH]2)cc1C(=O)NCCC(=N)N` [IIIa1, (E)-N-(3-amino-3-iminopropyl)-4-(4-(4-(2-(benzo[c][1,2,5]oxadiazol-5-yl)vinyl)benzamido)-1H-pyrrole-2-carboxamido)-1-methyl-1H-pyrrole-2-carboxamide], the MIC99 in assay [1] was 5 to 25 µg/mL (≈ 8.84 to 44.2 µM). The negative logarithm of the IC50 (pIC50) in assay [2] is 6.60 to 7.30; in assay [3] it was more than 7.30; in assay [4], 6.60 to 7.30; in assay [5], 6.60 to 7.30. Moreover, the “T.b. brucei Selectivity Indices” value in assay [3] (Alkyl Amidines and NH Pyrroles) is on record as “D (Group D: SI > 300)”. Moreover, the “T.b. brucei Selectivity Index” value in assay [3] was 1049.
